In US20120100139A1 (APTEVO RESEARCH AND DEVELOPMENT, published 2012):
Blank lines part the entries; values can stand above or below the binder they belong to.

Columns and labels:
[1] = target: T1, CD86 on cells (WIL2-S human B-lymphoblastoid cells; HuCD86-2A2 CHO cells expressing CD86) (human, UniProt P42081 24-329); experiment: flow cytometry on CD86-expressing CHO cells
T1 construct: whole, on cells; also called cell surface CD86
T1 sequence (looked up): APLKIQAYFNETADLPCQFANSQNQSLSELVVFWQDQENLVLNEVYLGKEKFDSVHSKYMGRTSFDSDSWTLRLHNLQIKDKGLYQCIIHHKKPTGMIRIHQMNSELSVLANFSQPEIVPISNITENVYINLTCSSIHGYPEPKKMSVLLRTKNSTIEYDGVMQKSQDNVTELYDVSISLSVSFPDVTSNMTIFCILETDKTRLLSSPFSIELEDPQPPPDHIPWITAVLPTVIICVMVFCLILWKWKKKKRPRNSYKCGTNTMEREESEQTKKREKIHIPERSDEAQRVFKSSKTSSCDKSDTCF
Protocol: (§1) Briefly, WIL2-S or HuCD86-2A2 cells were incubated with test molecules containing a CD86 antagonist at concentrations ranging from saturation to background levels. […] After the incubation, cells were washed and a fluorophore (R-phycoerythrin) tagged F(Ab′)₂ antibody specific for the Fc portion of the xceptor molecule, IL10R-Ig fusion protein, or anti-IL10 antibody. The tagged cells were then passed through a flow cytometer and data was analyzed by plotting median fluorescence intensity of each sample.

[2] = target: T2, soluble IL-10 receptor 1 (IL-10R1, R&D Systems) (human, UniProt Q13651 22-235); experiment: ELISA, sIL10Ra (FIG. 12); also simultaneous with CD80 (FIG. 13)
T2 construct: Bought soluble receptor; also called sIL10Ra; sIL10R1
T2 sequence (looked up): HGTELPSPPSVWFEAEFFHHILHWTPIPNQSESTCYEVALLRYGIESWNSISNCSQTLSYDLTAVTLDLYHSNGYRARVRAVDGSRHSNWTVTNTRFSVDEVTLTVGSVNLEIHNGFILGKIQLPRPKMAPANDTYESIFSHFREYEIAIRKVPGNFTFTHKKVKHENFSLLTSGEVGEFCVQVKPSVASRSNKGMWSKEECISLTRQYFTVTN

[3] = target: T3, CD80-mIg (Ancell Catalog #510-020) (UniProt P33681 35-242); experiment: ELISA, CD80
T3 construct: Bought reagent; also called CD80-mIgG; sCD80
T3 sequence (looked up): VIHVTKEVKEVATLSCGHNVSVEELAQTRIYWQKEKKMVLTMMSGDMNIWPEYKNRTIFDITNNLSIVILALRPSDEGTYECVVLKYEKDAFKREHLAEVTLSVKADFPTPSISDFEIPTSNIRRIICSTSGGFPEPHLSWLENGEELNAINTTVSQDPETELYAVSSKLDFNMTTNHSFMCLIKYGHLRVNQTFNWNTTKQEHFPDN

[4] = target: T3, CD80-mIg (Ancell Catalog #510-020); experiment: SPR (BIAcore T100), CD80-mIgG immobilized on CM5; bivalent analyte model, first site
Protocol: (§2) Surface plasmon resonance (SPR) measurements were performed on a BIAcore™ T100 SPR (Pharmacia Biotech AB, Uppsala) using HBS-EP+ (GE Healthcare) as a running buffer. […] CTLA4-containing constructs were injected for 150 seconds, at a flow rate of 10 μl/min, in a series of concentrations from 5 nM to 1 μM. Dissociation was monitored for 600 seconds, and the surface was regenerated by injecting 50 mM sodium citrate, 500 mM sodium chloride, pH 4.0, for 60 seconds. […] Data were analyzed using BiaEvaluation for the T100 software (version 2.0.1, GE Healthcare).

[5] = target: T1, CD86 on cells (WIL2-S human …); experiment: flow cytometry on WIL2-S cells
Protocol: as §1

[6] = target: T3, CD80-mIg (Ancell Catalog #510-020); experiment: SPR (BIAcore T100), CD80-mIgG immobilized on CM5; bivalent analyte model, second site
Protocol: as §2

[7] = target: T4, Murine CD86-mIgG (R&D Systems, Inc) (murine, UniProt P42082 24-244, limits assumed); experiment: SPR (BIAcore T100), murine CD86-mIgG immobilized on CM5; steady-state equilibrium, multiple Rmax fit
T4 construct: also called muCD86
T4 sequence (looked up): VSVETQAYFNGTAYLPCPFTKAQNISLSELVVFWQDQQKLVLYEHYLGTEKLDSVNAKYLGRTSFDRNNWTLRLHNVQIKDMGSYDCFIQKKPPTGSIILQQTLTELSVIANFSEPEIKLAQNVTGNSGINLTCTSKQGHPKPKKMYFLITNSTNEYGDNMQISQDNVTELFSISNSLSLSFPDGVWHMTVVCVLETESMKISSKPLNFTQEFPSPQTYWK
Protocol: (§3) SPR measurements were performed on a BIAcore™ T100 SPR (Pharmacia Biotech AB, Uppsala) using HBS-EP+ (GE Healthcare) as a running buffer. Murine CD86-mIgG (25 μg/mL in 10 mM sodium acetate, pH 4.0, R&D Systems, Inc) was directly immobilized onto a CM5 chip using standard amine coupling chemistry (Biacore Amine Coupling Kit, GE Healthcare), with final immobilization levels of 150, 493, and 746 Ru. CTLA4-containing constructs were injected for 150 seconds, at a flow rate of 10 μl/min, in a series of concentrations from 4 nM to 8 μM. Dissociation was monitored for 600 seconds (CTLA4 constructs) or 1200 seconds (GL1 constructs), and the surface was regenerated by injecting 10 mM glycine, pH 1.7, for 60 seconds. […] Data were analyzed using BiaEvaluation for the T100 software (version 2.0.1, GE Healthcare).

[8] = target: T4, Murine CD86-mIgG (R&D Systems, Inc); experiment: SPR (BIAcore T100), murine CD86-mIgG immobilized on CM5; bivalent analyte model, first site
Protocol: as §3

[9] = target: T3, CD80-mIg (Ancell Catalog #510-020); experiment: SPR (BIAcore T100), CD80-mIgG immobilized on CM5; steady-state equilibrium fit
Protocol: as §2

[10] = target: T4, Murine CD86-mIgG (R&D Systems, Inc); experiment: SPR (BIAcore T100), murine CD86-mIgG immobilized on CM5; bivalent analyte model, second site
Protocol: as §3

[11] = target: T5, PD1 ectodomain fused to a C-terminal AviTag, biotinylated (biotinylated on the AviTag with the BirA enzyme); experiment: SPR (BIAcore T100), biotinylated PD1 captured on neutravidin; 1:1 binding model
T5 construct: also called biotinylated PD1
T5 chain: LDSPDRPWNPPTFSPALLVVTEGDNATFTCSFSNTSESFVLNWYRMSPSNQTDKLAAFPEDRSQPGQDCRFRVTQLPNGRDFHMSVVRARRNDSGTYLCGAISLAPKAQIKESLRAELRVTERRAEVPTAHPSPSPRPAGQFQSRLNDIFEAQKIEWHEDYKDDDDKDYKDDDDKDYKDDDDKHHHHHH
Protocol: (§4) SPR measurements were performed on a BIAcore™ T100 SPR (Pharmacia Biotech AB, Uppsala) using HBS-P+ (GE Healthcare) as a running buffer. […] PDL1/2-containing constructs were injected for 120 seconds, at a flow rate of 30 μl/min, in a series of concentrations from 6 nM to 2 μM. Dissociation was monitored for 1200 seconds, and the surface was regenerated by injecting 50 mM NaOH, 1M NaCl for 30 seconds.
(§5) Data were analyzed using BiaEvaluation for the T100 software (version 2.0.1, GE Healthcare).

[12] = target: T5, PD1 ectodomain fused to a C-terminal …; experiment: SPR (BIAcore T100), biotinylated PD1 captured on neutravidin; kinetic KD calculated from first site ka and kd
Protocol: as §4, §5

binding result [1]: binds
binding result [2]: binds
binding result [3]: binds
B1: (CTLA4::IL10)-69 xceptor (Fc fusion)
chain: [about 120 residues not spelt out]EPKSSDKTHTCPPCPAPEAAGAPSVFLFPPKPKDTLMISRTPEVTCVVVDVSHEDPEVKFNWYVDGVEVHNAKTKPREEQYNSTYRVVSVLTVLHQDWLNGKAYACAVSNKALPAPIEKTISKAKGQPREPQVYTLPPSRDELTKNQVSLTCLVKGFYPSDIAVEWESNGQPENNYKTTPPVLDSDGSFFLYSKLTVDKSRWQQGNVFSCSVMHEALHNHYTQKSLSLSPGEQKLSNMENRLKPFFTSGSADTSPNSSPGQGTQSENSCTHFPGNLPNMLRDLRDAFSRVKTFFQMKDQLDNLLLKESLLEDFKGYLGCQALSEMIQFYLEEVMPQAENQDPDIKAHVNSLGENLKTLRLRLRRCHRFLPCENKSKAVEQVKNAFNKLQEKGIYKAMSEFDIFINYIEAYMTMKIRN

koff [4]: 0.0124 s⁻¹
kon [4]: 1.21e+06 M⁻¹ s⁻¹
binding result [5]: binds
Second Site ka [6]: 0.0207 s⁻¹
Second Site kd [6]: 0.0431 s⁻¹
Kd [7]: 1810 nM
koff [8]: 0.0228 s⁻¹
kon [8]: 13200 M⁻¹ s⁻¹
Kd [9]: 28 nM
Second Site ka [10]: 0.0405 s⁻¹
Second Site kd [10]: 0.0625 s⁻¹
B2: (CTLA4::IL10)-75 xceptor (Fc fusion)
chain: [about 120 residues not spelt out]EPKSSDKTHTCPPCPAPEAAGAPSVFLFPPKPKDTLMISRTPEVTCVVVDVSHEDPEVKFNWYVDGVEVHNAKTKPREEQYNSTYRVVSVLTVLHQDWLNGKAYACAVSNKALPAPIEKTISKAKGQPREPQVYTLPPSRDELTKNQVSLTCLVKGFYPSDIAVEWESNGQPENNYKTTPPVLDSDGSFFLYSKLTVDKSRWQQGNVFSCSVMHEALHNHYTQKSLSLSPGQRHNNSSLNTGTQMAGHSPNSSPGQGTQSENSCTHFPGNLPNMLRDLRDAFSRVKTFFQMKDQLDNLLLKESLLEDFKGYLGCQALSEMIQFYLEEVMPQAENQDPDIKAHVNSLGENLKTLRLRLRRCHRFLPCENKSKAVEQVKNAFNKLQEKGIYKAMSEFDIFINYIEAYMTMKIRN

koff [11]: 0.0395 s⁻¹
kon [11]: 116000 M⁻¹ s⁻¹
Kd [12]: 340 nM
B3: (CTLA4::PDL2)-65 xceptor (Fc fusion)
chain: [about 120 residues not spelt out]EPKSSDKTHTCPPCPAPEAAGAPSVFLFPPKPKDTLMISRTPEVTCVVVDVSHEDPEVKFNWYVDGVEVHNAKTKPREEQYNSTYRVVSVLTVLHQDWLNGKAYACAVSNKALPAPIEKTISKAKGQPREPQVYTLPPSRDELTKNQVSLTCLVKGFYPSDIAVEWESNGQPENNYKTTPPVLDSDGSFFLYSKLTVDKSRWQQGNVFSCSVMHEALHNHYTQKSLSLSPGQRHNNSSLNTRTQKARHSPNSLFTVTVPKELYIIEHGSNVTLECNFDTGSHVNLGAITASLQKVENDTSPHRERATLLEEQLPLGKASFHIPQVQVRDEGQYQCIIIYGVAWDYKYLTLKVKASYRKINTHILKVPETDEVELTCQATGYPLAEVSWPNVSVPANTSHSRTPEGLYQVTSVLRLKPPPGRNFSCVFWNTHVRELTLASIDLQSQMEPRTHPT
